{
  "source": "the supplement of paper PMC8728848",
  "assay_in_all_cases": "glycan array binding signal (z-score within array); higher = stronger binding",
  "conditions_in_all_cases": "glycan notation: IUPAC condensed, linker removed",
  "key": {"Gal6S(b1-4)Glc": {"target": "Gal6S(b1-4)Glc", "outline": "(§1)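 Negative Z-scores can be read as non-binding. The Z-score is calculated within each array and then averaged across arrays of one protein sequence at different concentrations or buffers and across linkers. Arrays, 3228 in all, were curated from the Consortium for Functional Glycomics database and kept only where the protein sequence was available.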"}, "Gal6S(b1-4)Glc6S": {"target": "Gal6S(b1-4)Glc6S", "outline": "as §1"}, "Gal6S(b1-4)GlcNAc": {"target": "Gal6S(b1-4)GlcNAc", "outline": "as §1"}, "Gal6S(b1-4)GlcNAc6S": {"target": "Gal6S(b1-4)GlcNAc6S", "outline": "as §1"}, "GalNAc(a1-3)Gal": {"target": "GalNAc(a1-3)Gal", "outline": "as §1"}, "GalNAc(a1-3)GalNAc": {"target": "GalNAc(a1-3)GalNAc", "outline": "as §1"}, "GalNAc(b1-3)Gal": {"target": "GalNAc(b1-3)Gal", "outline": "as §1"}, "[1]": {"target": "GalNAc(b1-3)Gal(a1-4)Gal(b1-4)GlcNAc", "outline": "as §1"}, "GalNAc(b1-3)GalNAc": {"target": "GalNAc(b1-3)GalNAc", "outline": "as §1"}, "GalNAc(b1-4)GlcNAc": {"target": "GalNAc(b1-4)GlcNAc", "outline": "as §1"}, "Glc(a1-4)Glc": {"target": "Glc(a1-4)Glc", "outline": "as §1"}, "Glc(a1-6)Glc(a1-6)Glc": {"target": "Glc(a1-6)Glc(a1-6)Glc", "outline": "as §1"}, "Glc(b1-4)Glc": {"target": "Glc(b1-4)Glc", "outline": "as §1"}, "Glc(b1-6)Glc": {"target": "Glc(b1-6)Glc", "outline": "as §1"}, "GlcA(b1-3)Gal": {"target": "GlcA(b1-3)Gal", "outline": "as §1"}, "GlcA(b1-3)GlcNAc": {"target": "GlcA(b1-3)GlcNAc", "outline": "as §1"}, "GlcA(b1-6)Gal": {"target": "GlcA(b1-6)Gal", "outline": "as §1"}, "[2]": {"target": "GlcNAc(a1-3)Gal(b1-4)GlcNAc", "outline": "as §1"}, "[3]": {"target": "GlcNAc(a1-6)Gal(b1-4)GlcNAc", "outline": "as §1"}, "[4]": {"target": "GlcNAc(b1-2)Gal(b1-3)GalNAc", "outline": "as §1"}, "[5]": {"target": "GlcNAc(b1-2)Man(a1-3)[GlcNAc(b1-2)Man(a1-6)]Man(b1-4)GlcNAc(b1-4)GlcNAc", "outline": "as §1"}, "GlcNAc(b1-3)Gal": {"target": "GlcNAc(b1-3)Gal", "outline": "as §1"}, "[6]": {"target": "GlcNAc(b1-3)Gal(b1-3)GalNAc", "outline": "as §1"}, "GlcNAc(b1-3)Gal(b1-4)Glc": {"target": "GlcNAc(b1-3)Gal(b1-4)Glc", "outline": "as §1"}, "[7]": {"target": "GlcNAc(b1-3)Gal(b1-4)GlcNAc", "outline": "as §1"}, "[8]": {"target": "GlcNAc(b1-3)Gal(b1-4)GlcNAc(b1-3)Gal(b1-4)GlcNAc", "outline": "as §1"}, "GlcNAc(b1-3)GalNAc": {"target": "GlcNAc(b1-3)GalNAc", "outline": "as §1"}, "GlcNAc(b1-3)Man": {"target": "GlcNAc(b1-3)Man", "outline": "as §1"}, "[9]": {"target": "GlcNAc(b1-3)[GlcNAc(b1-4)][GlcNAc(b1-6)]GlcNAc", "outline": "as §1"}, "[10]": {"target": "GlcNAc(b1-3)[GlcNAc(b1-6)]Gal(b1-4)GlcNAc", "outline": "as §1"}, "[11]": {"target": "GlcNAc(b1-3)[GlcNAc(b1-6)]GalNAc", "outline": "as §1"}, "[12]": {"target": "GlcNAc(b1-4)Gal(b1-4)GlcNAc", "outline": "as §1"}, "GlcNAc(b1-4)GlcNAc": {"target": "GlcNAc(b1-4)GlcNAc", "outline": "as §1"}, "[13]": {"target": "GlcNAc(b1-4)GlcNAc(b1-4)GlcNAc", "outline": "as §1"}, "[14]": {"target": "GlcNAc(b1-4)GlcNAc(b1-4)GlcNAc(b1-4)GlcNAc(b1-4)GlcNAc", "outline": "as §1"}, "[15]": {"target": "GlcNAc(b1-4)GlcNAc(b1-4)GlcNAc(b1-4)GlcNAc(b1-4)GlcNAc(b1-4)GlcNAc", "outline": "as §1"}, "[16]": {"target": "GlcNAc(b1-4)[GlcNAc(b1-6)]GalNAc", "outline": "as §1"}, "[17]": {"target": "GlcNAc(b1-6)Gal(b1-4)GlcNAc", "outline": "as §1"}},
  "note": "Some of the results follow.",
  "data": [
    {"binder": "Surfactant Protein D (rat); Neck + Carbohydrate Recognition Domain (NCRD) (Rattus norvegicus) (protein) MLLFLLSALVLLTQPLGYLEAEMKTYSHRTMPSACTLVMCSSVESGLPGRDGRDGREGPRGEKGDPGLPGAAGQAGMPGQAGPVGPKGDNGSVGEPGPKGDTGPSGPPGPPGVPGPAGREGALGKQGNIGPQGKPGPKGEAGPKGEVGAPGMQGSAGARGAGPKGERGVPGERGVPGNTGAAGSAGAMGPQGSPGARGPPGLKGDKGIPGDKGAKGESGLPDVASLRQQVEALQGQVQHLQAAFSQYKKVELFPNGQSVGEKIFKTAGFVKPFTEAQLLCTQAGGQLASPRSAAENAALQQLVVAKNEAAFLSMTDSKTEGKFTYPTGESLVYSNWAPGEPNDDGGSEDCVEIFTNGKWNDRACGEKRLVVCEF", "values": [
      {"measurement": "glycan array binding signal (z-score)", "setting": "Gal6S(b1-4)Glc", "value": 0.065},
      {"measurement": "glycan array binding signal (z-score)", "setting": "Gal6S(b1-4)Glc6S", "value": 0.373},
      {"measurement": "glycan array binding signal (z-score)", "setting": "Gal6S(b1-4)GlcNAc", "value": 0.143},
      {"measurement": "glycan array binding signal (z-score)", "setting": "Gal6S(b1-4)GlcNAc6S", "value": -0.005},
      {"measurement": "glycan array binding signal (z-score)", "setting": "GalNAc(a1-3)Gal", "value": -0.233},
      {"measurement": "glycan array binding signal (z-score)", "setting": "GalNAc(a1-3)GalNAc", "value": -0.169},
      {"measurement": "glycan array binding signal (z-score)", "setting": "GalNAc(b1-3)Gal", "value": -0.184},
      {"measurement": "glycan array binding signal (z-score)", "setting": "[1]", "value": -0.079},
      {"measurement": "glycan array binding signal (z-score)", "setting": "GalNAc(b1-3)GalNAc", "value": -0.139},
      {"measurement": "glycan array binding signal (z-score)", "setting": "GalNAc(b1-4)GlcNAc", "value": -0.139},
      {"measurement": "glycan array binding signal (z-score)", "setting": "Glc(a1-4)Glc", "value": 0.171},
      {"measurement": "glycan array binding signal (z-score)", "setting": "Glc(a1-6)Glc(a1-6)Glc", "value": 0.257},
      {"measurement": "glycan array binding signal (z-score)", "setting": "Glc(b1-4)Glc", "value": -0.247},
      {"measurement": "glycan array binding signal (z-score)", "setting": "Glc(b1-6)Glc", "value": 0.041},
      {"measurement": "glycan array binding signal (z-score)", "setting": "GlcA(b1-3)Gal", "value": -0.065},
      {"measurement": "glycan array binding signal (z-score)", "setting": "GlcA(b1-3)GlcNAc", "value": 0.18},
      {"measurement": "glycan array binding signal (z-score)", "setting": "GlcA(b1-6)Gal", "value": -0.156},
      {"measurement": "glycan array binding signal (z-score)", "setting": "[2]", "value": -0.263},
      {"measurement": "glycan array binding signal (z-score)", "setting": "[3]", "value": -0.178},
      {"measurement": "glycan array binding signal (z-score)", "setting": "[4]", "value": -0.227},
      {"measurement": "glycan array binding signal (z-score)", "setting": "[5]", "value": -0.146},
      {"measurement": "glycan array binding signal (z-score)", "setting": "GlcNAc(b1-3)Gal", "value": -0.231},
      {"measurement": "glycan array binding signal (z-score)", "setting": "[6]", "value": -0.229},
      {"measurement": "glycan array binding signal (z-score)", "setting": "GlcNAc(b1-3)Gal(b1-4)Glc", "value": -0.093},
      {"measurement": "glycan array binding signal (z-score)", "setting": "[7]", "value": -0.192},
      {"measurement": "glycan array binding signal (z-score)", "setting": "[8]", "value": -0.257},
      {"measurement": "glycan array binding signal (z-score)", "setting": "GlcNAc(b1-3)GalNAc", "value": -0.178},
      {"measurement": "glycan array binding signal (z-score)", "setting": "GlcNAc(b1-3)Man", "value": -0.12},
      {"measurement": "glycan array binding signal (z-score)", "setting": "[9]", "value": -0.229},
      {"measurement": "glycan array binding signal (z-score)", "setting": "[10]", "value": -0.181},
      {"measurement": "glycan array binding signal (z-score)", "setting": "[11]", "value": -0.221},
      {"measurement": "glycan array binding signal (z-score)", "setting": "[12]", "value": -0.144},
      {"measurement": "glycan array binding signal (z-score)", "setting": "GlcNAc(b1-4)GlcNAc", "value": -0.216},
      {"measurement": "glycan array binding signal (z-score)", "setting": "[13]", "value": 0.109},
      {"measurement": "glycan array binding signal (z-score)", "setting": "[14]", "value": -0.139},
      {"measurement": "glycan array binding signal (z-score)", "setting": "[15]", "value": -0.108},
      {"measurement": "glycan array binding signal (z-score)", "setting": "[16]", "value": -0.173},
      {"measurement": "glycan array binding signal (z-score)", "setting": "[17]", "value": -0.257}
    ]}
  ]
}
